{
  "source": "PubChem BioAssay AID492947",
  "about": "(National Center for Advancing Translational Sciences (NCATS), 2010)",
  "note": "Among all 330,000 compounds or so, about 80 (0.02%) were called active. This list was built around the results that the source calls inconclusive (neither active nor inactive); the mix of calls is not that of the screen. The call rests on the fitted dose curve; in most records, active means well fitted activation curve with a large enough effect; inconclusive means small, poorly fitted or top-dose-only effect; inactive means flat fitted curve, though single readings scatter. Potencies of inconclusive entries are left out as doubtful fits. Potency means the concentration at half of the fitted maximal effect; tags describe the fitted curve by direction and shape.",
  "data": [
    {"target": "Beta-2 adrenergic receptor (Homo sapiens) (UniProt P07550)", "sequence (P07550 whole entry, looked up)": "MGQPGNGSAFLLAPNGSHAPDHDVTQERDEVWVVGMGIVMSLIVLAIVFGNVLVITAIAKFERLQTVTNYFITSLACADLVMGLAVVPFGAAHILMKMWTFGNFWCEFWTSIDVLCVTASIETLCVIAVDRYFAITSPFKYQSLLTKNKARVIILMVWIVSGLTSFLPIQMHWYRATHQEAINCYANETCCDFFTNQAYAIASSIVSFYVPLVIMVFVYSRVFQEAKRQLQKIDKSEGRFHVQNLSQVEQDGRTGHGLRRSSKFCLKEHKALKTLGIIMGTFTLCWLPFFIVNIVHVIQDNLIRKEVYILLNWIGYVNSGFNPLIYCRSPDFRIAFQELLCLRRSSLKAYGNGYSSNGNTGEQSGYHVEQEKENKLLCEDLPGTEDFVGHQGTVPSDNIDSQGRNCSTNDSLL", "test": "qHTS assay of beta-arrestin-biased ligands of beta2-adrenergic receptor; further: nearly all actives have a fitted effect of over 65% in size", "settings": "beta-arrestin recruitment to beta2AR, cell-based reporter; series mostly up to 46.1 µM", "outline": "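qHTS, Tango cells, 1500 cells/well, DMEM + 1% FBS. Cpd 18 hr at 37 degrees C. Luciferin/ATP/CoA detection mix, 15 min RT, luminescence read. %Activity from corrected signal; CRC fit, curve class.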", "values": [
      {"smiles": "CCN(CC)CCn1c2ccccc2c2n[nH]c(=S)nc21", "Potency": "inactive"},
      {"smiles": "COc1ccccc1-c1nn2c(-c3ccco3)nnc2s1", "Potency": "inactive"},
      {"smiles": "O=C(O)Cc1sc(N/N=C\\c2ccccc2)nc1-c1ccccc1", "Potency": "inconclusive [rising, single point]"},
      {"smiles": "Oc1ccc(NCc2cccs2)cc1", "Potency": "active: 12.6 µM"},
      {"smiles": "CCOc1ccccc1NC(=O)N1CCCc2ccccc21", "Potency": "inconclusive [rising, full curve, poor fit]"},
      {"smiles": "O=S(=O)(c1ccccc1)N1CCC(O)(CSc2ccc(F)cc2)CC1", "Potency": "inactive"},
      {"smiles": "COc1ccc(NC(=S)c2ccc3ccccc3n2)cc1", "Potency": "inconclusive [rising, single point]"},
      {"smiles": "CCc1cc2c(=O)[nH]c(-c3ccccn3)nc2s1", "Potency": "inconclusive [rising, single point]"},
      {"smiles": "c1ccc2c(c1)ncn2CCC1CCCCC1", "Potency": "inactive"},
      {"smiles": "CCc1nnc(NC(=O)CN2CCN(Cc3cccc(F)c3)CC2)s1", "Potency": "inconclusive [rising, single point]"},
      {"smiles": "CNC(=S)N/N=C/C1=CCC2CC1C2(C)C", "note": "(stereo not drawn)", "Potency": "inconclusive [rising, single point]"},
      {"smiles": "CC1=NN(C(N)=S)C(=O)C1N=Nc1ccc([N+](=O)[O-])cc1", "note": "(stereo not drawn)", "Potency": "active: 7.08 µM"},
      {"smiles": "COc1ccccc1NC(=S)N/N=C1\\CC(C)(C)Oc2ccc(O)cc21", "Potency": "inconclusive [rising, single point]"},
      {"smiles": "O=C(N/N=C/C(Br)=C\\c1ccccc1)c1ccc2nc[nH]c2c1", "Potency": "inconclusive [rising, single point]"},
      {"smiles": "CC1=NOC(=O)/C1=C\\c1ccc(-c2cccc(Cl)c2)o1", "Potency": "inconclusive [rising, single point]"},
      {"smiles": "NC(=S)N/N=C\\c1ccc(-c2cccc(Cl)c2Cl)o1", "Potency": "inconclusive [rising, single point]"},
      {"smiles": "COc1ccc([C@H]2CC(=O)C=C(c3cccc(OC)c3)C2)cc1", "Potency": "inactive"},
      {"smiles": "CC1=NN(C(N)=S)C(=O)C1N=Nc1cccc([N+](=O)[O-])c1", "note": "(stereo not drawn)", "Potency": "inconclusive [rising, single point]"},
      {"smiles": "C/C=C(/C(=C/C)c1ccc(O)cc1)c1ccc(O)cc1", "Potency": "active: 1.46 µM"},
      {"smiles": "Cc1cccc(NC(=O)CNC(=O)c2cccc(-n3cccc3)c2)c1C", "Potency": "inactive"},
      {"smiles": "Cc1ccccc1C(=O)NNC(=O)C(C)N1C(=O)c2ccccc2C1=O", "note": "(stereo not drawn)", "Potency": "inactive"},
      {"smiles": "CNc1ncc(C(=O)c2ccc(Cl)cc2)s1", "Potency": "inactive"},
      {"smiles": "CC1=NN(C(N)=S)C(=O)C1N=Nc1ccccc1", "note": "(stereo not drawn)", "Potency": "active: 1.41 µM"},
      {"smiles": "O=C(O)c1cc2c(s1)-c1ccccc1CC2", "Potency": "inactive"},
      {"smiles": "CC1CN(C(=O)COC(=O)[C@@H](NC(=O)c2ccccc2Cl)C(C)C)CC(C)O1", "note": "(stereo partly drawn)", "Potency": "inconclusive [rising, single point]"},
      {"smiles": "C=CC[n+]1c(-c2ccc(C)cc2)csc1NNC(=O)Nc1ccccc1", "Potency": "inconclusive [rising, single point]"},
      {"smiles": "CCOc1ccc(CN(CCC#N)C(=S)NC(=O)c2ccccc2)cc1", "Potency": "inactive"},
      {"smiles": "O=C(/C=C(O)/C=C/c1ccc(O)cc1)/C=C/c1ccc(O)cc1", "Potency": "inconclusive [rising, single point]"},
      {"smiles": "CCC(=O)Nc1cccc(-c2nnc(SCC(=O)c3ccccc3)n2C)c1", "Potency": "inconclusive [rising, single point]"},
      {"smiles": "CCC(NC(C)C)C(O)c1ccc(O)c2[nH]c(=O)ccc12", "note": "(stereo not drawn)", "Potency": "active: 0.184 µM"},
      {"smiles": "CCSc1nnc(NC(=O)c2ccc3ccccc3n2)s1", "Potency": "inconclusive [rising, single point]"},
      {"smiles": "CC1(C)CC(=O)C(C2=NC3(CCCCCC3)Cc3ccccc32)=C(O)C1", "Potency": "inconclusive [rising, single point]"},
      {"smiles": "O=C(N/N=C/C=C/c1ccc2c(c1)OCO2)c1ccc([N+](=O)[O-])cc1", "Potency": "inactive"},
      {"smiles": "CC(C)CNC(=O)COC(=O)c1ccc(Cl)c(S(N)(=O)=O)c1", "Potency": "inactive"},
      {"smiles": "CN(C)CCNC(=O)/C=C/c1cn(-c2ccccc2)nc1-c1cc2ccccc2oc1=O", "Potency": "inactive"},
      {"smiles": "CC1Cc2nc(SCC(=O)Nc3nc4ccccc4s3)n(C)c(=O)c2S1", "note": "(stereo not drawn)", "Potency": "inconclusive [rising, single point]"},
      {"smiles": "CC(C)(C)NNC(=S)Nc1cccc(C(F)(F)F)c1", "Potency": "inconclusive [rising, single point]"},
      {"smiles": "Cc1cc(=S)nc(-c2ccccn2)[nH]1", "Potency": "inconclusive [rising, single point]"},
      {"smiles": "C/C(=N\\OCC(=O)Nc1ccc2c(c1)OCCO2)c1ccc2c(c1)OCCO2", "Potency": "inactive"},
      {"smiles": "CCn1c(NC(=O)C2CCCCC2)nc2ccccc21", "Potency": "inconclusive [rising, single point]"},
      {"smiles": "C/C(=N\\NC(=S)Nc1ccccc1C)c1ccc(O)cc1", "Potency": "inconclusive [rising, single point]"},
      {"smiles": "O=C(CCN1C(=O)COc2ccccc21)NCCCN1CCN(c2ccccc2F)CC1", "Potency": "inactive"},
      {"smiles": "Cn1c(-c2csc(-c3ccccc3)n2)n[nH]c1=S", "Potency": "inconclusive [rising, single point]"}
    ]}
  ]
}
